Experimental data taken from the supplement of paper PMC11417369.
± gives the standard deviation of the averaged measurements. The list shows a part of the results.

Tested on: PfAP2-EXP AP2 domain (GST-tagged)
Test: gcPBM binding intensity (ln(normalized median fluorescence intensity)); higher = stronger DNA binding
Outline: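 An Agilent 4 × 180k array of primer-extended double-stranded 36-bp intergenic genomic probes, with negative controls, was incubated for 1 h with GST-tagged P. falciparum DNA-binding domains expressed in E. coli. Alexa488 anti-GST antibody detected bound protein, scanned at 488 nm. Binding intensity is the highest Masliner-normalised natural-log median intensity across replicate spots of either probe orientation.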

| Sequence | gcPBM binding intensity (ln) |
| --- | --- |
| ATATACATATTTTTGACACACATTAGGAAAATATAT [CACACA_site4123] | 8.42 ± 0.3 |
| TATTATTTATATGATACACACGTACATATACACATA [CACACA_site9275] | 8.53 ± 0.33 |
| TTCATTAAAACGAATACACACATAAATATATAAAAG [CACACA_site4824] | 8.67 ± 0.27 |
| AAATATATATATATTACACACTATATATTTATTTAT [CACACA_site681] | 8.22 ± 0.31 |
| TTAATTCTATACATAAATTATGTTTACATAAAGAAT [GTGCAC_negctrl_site246] | 8.26 ± 0.33 |
| ACAAATAAAAAAATTACACACATATATAATATATAT [CACACA_site1361] | 8.49 ± 0.26 |
| AGTAGTCTGGAGAAAAGTACACAGTATCTGGTAACA [XGTACX_site2034] | 8.4 ± 0.47 |
| AAAAATAAAATAAAATAAAATAAAAATAAAGAAAAA [CACACA_negctrl_site808] | 8.54 ± 0.42 |
| TATTAACTCAATAGCGCACACTTTTAATATTTTATA [CACACA_site4973] | 8.96 ± 0.16 |
| ATTTGACACGTATATGCACACACCCGTAAGTGTCCA [CACACA_site8891] | 9.09 ± 0.4 |
| TCATAAAAAGGAATCTTTAAGATATTTTATAAGCTC [XGTACX_negctrl_site18] | 8.06 ± 0.5 |
| ATGTGATAATTTAGGAGTACTGTCATAAGCATTTCT [XGTACX_site3091] | 8.52 ± 0.41 |
| TTATAAATTTTTAATAGTACATAAAATTAAAGGTAA [XGTACX_site760] | 8.66 ± 0.21 |
| AATAAATGTCTGTTAATGCACACGATATGTCTATAT [CACACA_site2351] | 8.51 ± 0.2 |
| AGTGCATAATATTTATGTACGTATCACATATATTTT [XGTACX_site5166] | 8.58 ± 0.085 |
| TTTCTTTATTTATAATAATTTTTTATTAAAAATAGA [CACACA_negctrl_site1610] | 8 ± 0.35 |
| ATGTATCGTAACAAATGTACAAGAGGATGTTTAGAC [XGTACX_site3355] | 9.05 ± 0.48 |
| GATATATTTTGTTATGTAGATGTTGGTAGGAATTTT [GTGCAC_negctrl_site485] | 8.61 ± 0.5 |
| GTATTTATATGATTAACACACATATGTGGATTAATA [CACACA_site1315] | 8.44 ± 0.33 |
| ATATATATATATATATGTACGTAAACAAAAATTTAT [XGTACX_site6780] | 10.1 ± 0.4 |
| TATTGATAAAAAATATGTACATATATACATATATAT [XGTACX_site3821] | 8.48 ± 0.23 |
| TATATAACTACAAGAACACACATATAAATATAAATA [CACACA_site7210] | 8.79 ± 0.32 |

| Sequence | gcPBM binding intensity (ln) |
| --- | --- |
| GTAATTAAGATATATACACACAAAGGCTATTAAATA [CACACA_site6604] | 8.47 ± 0.52 |
| TAATATTACATTTATTGTACTTTGTTTTTATTTTAT [XGTACX_site1605] | 8.51 ± 0.42 |
| AATTATACTCACGTTACACACACACTAGATATATAT [CACACA_site6133] | 8.83 ± 0.54 |
| TTTTTTTTTTTTTTTTGTACATATATATAAAAAATA [XGTACX_site2772] | 8.18 ± 0.51 |
| CCCACAATGGTTTATATACACACTGTTGCAAATTCT [CACACA_site3066] | 8.65 ± 0.47 |
| ATTGAAAAAATACAATGTACATAGTAATACAAAGAA [XGTACX_site4142] | 8.94 ± 0.37 |
| TGTTTCTAAGAATTTACACACAAAATATTTCTACAT [CACACA_site7846] | 8.42 ± 0.45 |
| TAATACTTAATGAACACATGCACATATACATAGTAT [TGCATGCA_site496] | 8.66 ± 0.27 |
| TTAAAAATTAAAAGTAGTACATATAATATAAACATT [XGTACX_site424] | 8.41 ± 0.3 |
| AAAAAAAAAAATTGCACACAAAAAAAAAAAAAAAAA [CACACA_site2073] | 8.2 ± 0.43 |
| AGACAATTTTTTAGTACACACATATAGATATATAAA [CACACA_site6832] | 8.59 ± 0.28 |
| CTTAAATCCATAATATGTACTTAAAAAGAAAAAATA [XGTACX_site4765] | 8.34 ± 0.4 |
| ATAATTATACAAAAGCGTACACGATATAAATCTACG [XGTACX_site8115] | 8.61 ± 0.27 |
| ATATGAACATTAAAAAAGTAAGGTATTCTCCCCTCT [CACACA_negctrl_site1299] | 8.48 ± 0.3 |
| GTATTATAAAAAGGAAGTACATATATACATATTATA [XGTACX_site1271] | 8.6 ± 0.32 |
| TTATAAAAAAAAAAAAAAAAAAAAACCAATATAATA [CACACA_negctrl_site968] | 8.07 ± 0.52 |
| TTTATTCTAAAATATTAAAAATGATTTGTTTTTTCA [CACACA_negctrl_site1751] | 7.78 ± 0.43 |
| TTTTAAAATAAAAAAATAAAAAAAGGGGAAAAAAAA [CACACA_negctrl_site847] | 8.37 ± 0.35 |
| CATATCAAAAAAAAATGTACACGTATATACAATACA [XGTACX_site2660] | 8.56 ± 0.42 |
| TATAATATGTTTGATGGTACACGTAAACACCTTGCA [XGTACX_site1643] | 8.68 ± 0.3 |
| ATATACTTATATATTGCACACATCTAATATTTTGAA [CACACA_site3165] | 8.62 ± 0.23 |
| ATAACTAAATTATATTGTACAAAATAATTATATATT [XGTACX_site1188] | 8.35 ± 0.33 |

| Sequence | gcPBM binding intensity (ln) |
| --- | --- |
| ATACACGTTTTACAATGTACAGAAAGTATACATAAT [XGTACX_site4585] | 8.74 ± 0.46 |
| TTTAATCAACAAAATCTACACACTAATATGAAATAT [CACACA_site9250] | 8.32 ± 0.58 |
| TATTATATATATAAATGTACATATTATTTTTCTTTT [XGTACX_site8670] | 8.69 ± 0.28 |
| GTATTTTTTTTCTTTTGTACATATATATAAAGAATA [XGTACX_site4569] | 8.85 ± 0.41 |
| AAGAATTTTCGATTTGCACACATTTGTAAAATAAAA [CACACA_site2354] | 8.22 ± 0.23 |
| AATTTAAAAAATAATTGTACAAAAAAAAAAAATCAG [XGTACX_site4576] | 8.94 ± 0.57 |
| GTTAATATTTTTGGGGGTACTTAAAAAAAAAAAAAA [XGTACX_site1477] | 9.35 ± 0.26 |
| TTACATACAATTGGTGTGCACATATATATATATATA | 10.3 ± 0.33 |
| CAAAAGGATAGGCACACACACACACCGATATATATA [CACACA_site8685] | 8.84 ± 0.38 |
| GAATATTAATTCAAGTGTACAAATATATATATAATT [XGTACX_site5103] | 8.62 ± 0.35 |
| ATAATATAAATATACACACACACATATATATATATA [CACACA_site2905] | 10 ± 0.29 |
| TAATAAGGAATTTATAGTACATATTCATATGTTTTA [XGTACX_site2331] | 8 ± 0.29 |
| ATAAAAATTTATATATGTACTTAATTTTTAATTTTT [XGTACX_site7482] | 8.38 ± 0.4 |
| TATGTTTTTGAATGAGTGCATTAAAATAAAACATTT | 8.72 ± 0.28 |
| TTCTTGTATATTCATAGTACATATAATGTCGTGTTA [XGTACX_site8991] | 8.72 ± 0.4 |
| AAATAAAGAAATGCAAGTACATACTAAACTAATCCA [XGTACX_site1209] | 8.61 ± 0.42 |
| ATATATATTATAATCTGTACATAAATATATAATAAA [XGTACX_site5425] | 8.39 ± 0.33 |
| TTGTTTTATACATAGTGTACATATAAAAATTTTTTT [XGTACX_site7549] | 8.65 ± 0.28 |
| TCTTAAATTATGATAAAATATAATAAATAAATAAAT [CACACA_negctrl_site1520] | 8.31 ± 0.34 |
| CAGATAAATAAACACACACACACATATATATATATA [CACACA_site9311] | 10.1 ± 0.26 |
| ATATATAAATATGAAACACACATTCTATTTAATTCG [CACACA_site1450] | 8.2 ± 0.42 |
| ATTTTCCCTAGAATATGTACACATAGTAAATATTAT [XGTACX_site7499] | 8.36 ± 0.36 |

| Sequence | gcPBM binding intensity (ln) |
| --- | --- |
| TATGTTTCTATATATACATGCAAGAAGAAATGTACT [TGCATGCA_site891] | 9 ± 0.37 |
| ATATGTACAAATTATACACACATGTACAATTATATA [CACACA_site1253] | 8.63 ± 0.28 |
| AAAAAAAAAAAAGAAAAATATATATATAAATAAATA [GTGCAC_negctrl_site569] | 8.29 ± 0.67 |
| ATGTCACAATTTTTCACACACAAAATTTATATACAT [CACACA_site2030] | 8.74 ± 0.4 |
| ATAAATATTGCGTGCACACACATAATATTTATATAT [CACACA_site7136] | 8.58 ± 0.099 |
| TATAATATATTCATGTGTACATATATTTCGAACATA [XGTACX_site1754] | 8.62 ± 0.33 |
| CGAAAAATATGTATGAGTACTTATATTTAAACTATA [XGTACX_site1911] | 8.37 ± 0.3 |
| CATTCCTATTATTATACACACAAATTAAGAATTCAA [CACACA_site787] | 8.44 ± 0.42 |
| ATGTCATAAAAACATATACACACTTGAAATATAAAA [CACACA_site2329] | 8.5 ± 0.41 |
| ATTTTTTTGTTAATTTGTACATAAAATTTTATTTTA [XGTACX_site7007] | 8.72 ± 0.42 |
| ATATTTATTTTATAAAGTACTAAAAAATATATTATA [XGTACX_site8522] | 8.19 ± 0.37 |
| AAAAAAAAAAAAAAAACACACAAACGCTTTTTTTTT [CACACA_site4545] | 8.77 ± 0.17 |
| GGATAAGAGGCATATACACACAATTTAAAAAAATAA [CACACA_site4657] | 8.59 ± 0.53 |
| TATATTTATACTTATACACACATTATTGAATTAACC [CACACA_site934] | 8.45 ± 0.42 |
| AAAATATTTATTCCTAGTACTTACCATTATATATAT [XGTACX_site363] | 8.8 ± 0.4 |
| AAAAAAAAATGAAAAGAAAAAAAAAGAAAAAAGGGA [CACACA_negctrl_site287] | 8.61 ± 0.67 |
| CTTTATATATTTTATTGTACTTAAAAAAAAAAAAAA [XGTACX_site2134] | 8.2 ± 0.49 |
| AAAAAATATGCATATACACACATATGTATAAATAAC [CACACA_site7090] | 8.88 ± 0.49 |
| AGTGTAAGCTAAGTGGTGCGTTGAATAAGGTTTTTT [GTGCAC_site9951] | 8.82 ± 0.2 |
| TATAGGTATTTGTATACACACAAATGTATATATCTA [CACACA_site6713] | 8.19 ± 0.27 |
| ATTATTTATATTTGGAGTACTTATAATATTTTTATA [XGTACX_site1289] | 8.54 ± 0.26 |
| TATATATATAATATATGTACTCATATTAAGAGATAC [XGTACX_site1354] | 8.82 ± 0.11 |
